Hit rate of the full screen: of about 52,000 compounds, about 4,300 (8.3%) were called active. No stated cut-off is given here; in the data, active means survival mostly below about 52% (no sharp cut-off); inactive means mostly above about 56%. This is one part of the list.

This assay relates to DeltatarO mutant. In words: growth inhibition of S. aureus wild type versus tarO mutant, primary screen, teichoic acid synthesis inhibitors, RN4220, OD600 (AID 463173). Conditions: OD600, 18 h, hits give low values, screened at 18.75 µg/mL (by protocol).
Take `COc1ccc(N2CCN(C(=O)c3ccc(CS(=O)(=O)c4ccc(Br)cc4)o3)CC2)cc1`: the survival was inactive: 128%.

With `O=C(NC1CCCC1)c1cnn2c(C(F)F)cc(-c3ccccc3)nc12`, the survival was inactive: 78%.

As for `CCN(c1ccccc1)c1nnc(NC(=O)Nc2cccc(Br)c2)s1`, the survival is inactive: 80%.

On to `Cc1cc(C)cc(-n2ccn(CC(=O)Nc3ccccc3C(F)(F)F)c(=O)c2=O)c1`, for which the survival is inactive: 63%.

`O=C1CC(c2nc3ccccc3n2CCCOc2ccccc2)CN1c1ccc(F)cc1` (stereo not given): the survival is inactive: 97%.

For `CN(C)CCNC(=O)CCCN1C(=O)c2cccnc2Oc2ccc(Cl)cc21`, the survival was inactive: 78%.

In the case of `Cc1ccc(N2CC(C)Cn3c2nc2c3c(=O)n(CC(=O)O)c(=O)n2C)cc1` (stereo not given), the survival was inactive: 83%.

On to `COc1ccc(Cn2nnnc2CN2CCN(C)CC2)cc1`, for which the survival was inactive: 102%.

Take `CCOC(=O)c1c(SCC(=O)Nc2nc3ccc(C)cc3s2)nc(=O)[nH]c1C`: the survival was inactive: 70%.

On to `CC(C)(C)C1CCc2oc3ccc(NS(=O)(=O)c4cc(Cl)ccc4Cl)cc3c2C1` (stereo not given), for which the survival was inactive: 73%.

In the case of `Cc1cccc(CSc2cn(CC(=O)N3CCCCC3)c3ccccc23)c1`, the survival is inactive: 76%.

With `CCCC(=O)OC1=CN(Cc2ccccc2)S(=O)(=O)c2ccccc21`, the survival was inactive: 67%.

As to `O=C(Cn1cc(SCc2cccc(F)c2)c2ccccc21)N1CCOCC1`, the survival is inactive: 74%.

As to `CN1C(=O)N(C)C2C1N(C)S(=O)(=O)N2C` (stereo not given), the survival is inactive: 94%.

Turning to `COc1cc(OC)c(NC(=O)CSc2nccn2C)cc1Cl`, the survival is inactive: 73%.

`C/C(=N/NC(N)=S)c1ccc(Br)s1`: the survival was inactive: 112%.

On to `Cc1ccc(CNC(=O)c2ccc(-n3c(C)cc4c3CCCC4)cc2)cc1`, for which the survival was inactive: 78%.

Consider `CC1CCN(c2oc(-c3cccs3)nc2S(=O)(=O)c2ccc(Cl)cc2)CC1`, for which the survival was active: 17%.

Consider `Cc1ccc(OCC(=O)Nc2ccc3nc(SCC(=O)N4CCCC4)sc3c2)cc1`, for which the survival was inactive: 90%.

For `O=C(CSc1nc2cc(C(=O)NC3CCCC3)ccc2c(=O)n1CC1CCCO1)c1ccc(F)cc1` (stereo not given), the survival was inactive: 96%.

As for `CNC(=O)c1ccc2c(c1)N=C(C)c1cc(C)ccc1S2`, the survival was inactive: 70%.

For `Cc1ccc(C)c(S(=O)(=O)c2cn(Cc3ccccc3)c3cc(F)c(F)cc3c2=O)c1`, the survival was inactive: 80%.

In the case of `CCOc1ccc(N(c2nc(-c3ccc(OC)c(OC)c3)no2)c2nc(-c3ccc(OC)c(OC)c3)no2)cc1`, the survival is inactive: 73%.

As for `O=C(Cn1ccn(-c2ccc(F)cc2)c(=O)c1=O)NCCc1ccccc1`, the survival was inactive: 57%.

For the compound `CC(=O)N1c2ccc(S(=O)(=O)N3CCN(c4ccc(C)cc4C)CC3)cc2CC1C` (stereo not given), the survival was inactive: 91%.

Take `CC1(C)CC(N=CC2=C(O)c3ccccc3C2=O)CC(C)(C)N1`: the survival was inactive: 95%.

For the compound `CCOC(=O)c1cnc2ccc(C)cc2c1Nc1ccc(OCc2ccccc2Cl)cc1`, the survival is active: 2%.

In the case of `COc1ccccc1N(CC(=O)NCCSCc1ccccc1Cl)S(C)(=O)=O`, the survival is inactive: 59%.

`O=C(Nc1ccccc1)N1CCc2ccccc21`: the survival is inactive: 74%.

On to `CCC(=O)N1N=C(c2ccc(OC)cc2)CC1c1cn(-c2ccccc2)nc1-c1cccs1` (stereo not given), for which the survival is inactive: 148%.

Regarding `O=C(Cn1c(=O)n(Cc2nc(-c3ccccc3)no2)c(=O)c2cc3c(cc21)OCO3)Nc1ccc(Cl)cc1`, the survival was inactive: 89%.

Take `Cc1ccc(C)c(N2CCN(c3ccc(NC(=O)c4cccs4)cc3C(=O)O)CC2)c1`: the survival was inactive: 126%.

Take `OC1CCN(Cc2nnnn2Cc2ccccc2)CC1`: the survival was inactive: 101%.

Consider `CCc1ccc(NC(=O)CC2C(=O)OCCN2CC)cc1` (stereo not given), for which the survival is active: 5%.

As to `S=c1n(CN2CCCCC2)c2ccccc2n1CN1CCCCC1`, the survival was inactive: 106%.

With `CCOC(=O)c1ccc(N2C(=O)c3n[nH]c(-c4cccs4)c3C2c2cccc(F)c2)cc1` (stereo not given), the survival is inactive: 105%.

With `CCOc1ccccc1NC(=O)C(CC(C)C)NS(=O)(=O)c1ccc2c(c1)CCN2C(C)=O` (stereo not given), the survival was inactive: 78%.

For the compound `CCc1ccccc1NC(=O)Cn1ncc2c(C)n(Cc3ccccc3F)c(C)c2c1=O`, the survival is inactive: 86%.

`CC(C)CNC(=O)CCSc1nc(-c2ccc3c(c2)OCO3)cc(C(F)(F)F)n1`: the survival is inactive: 68%.

As to `COc1cc(Br)c(C2CC(=O)Nc3cc(OC)c(OC)c(OC)c32)cc1OC` (stereo not given), the survival is inactive: 96%.

Regarding `CC1CCc2c(sc(NC(=O)CCCOc3ccc(C(C)(C)C)cc3)c2C(N)=O)C1` (stereo not given), the survival was inactive: 60%.

On to `CCOc1ccc(-n2c(=O)c3c(C)c(C)sc3n(CC(=O)c3ccccc3)c2=O)cc1`, for which the survival is inactive: 190%.

On to `CCN(CC)CCCNC(=O)c1c(C)oc2ncn(CC(C)C)c(=O)c12`, for which the survival was inactive: 70%.

For the compound `Cn1c(=O)n(C)c2cc(NS(=O)(=O)c3ccc(Br)cc3)c(NCc3ccccc3)cc21`, the survival is inactive: 57%.

As to `CCc1ccc(-n2nc(C)c3c(C)cc(=O)n(CC(=O)Nc4ccc(C)c(F)c4)c32)cc1`, the survival was inactive: 116%.

Consider `CCNc1nnc(-c2ccccc2)s1`, for which the survival was inactive: 84%.

Take `CN(C)c1ccc(NC(=O)CCSc2nc(-c3ccco3)cc(C(F)(F)F)n2)cc1`: the survival was inactive: 51%.

For the compound `O=C(CN1C(=O)COc2ccc(S(=O)(=O)N3CCCCCC3)cc21)N1CCN(c2cccc(Cl)c2)CC1`, the survival is inactive: 95%.

Regarding `CCOC(=O)c1c(NC(=O)CN(CC)CC)sc2c1CCC/C2=N\O`, the survival was inactive: 65%.

As to `CC(C)(C)OC(=O)N1CCC(c2c(C(=O)O)cnn2-c2ccc(F)cc2F)CC1`, the survival is inactive: 87%.

As for `CCNC(=O)NC1(C(=O)Nc2ccc3c(c2)OCCO3)CCCCC1`, the survival is inactive: 99%.

Regarding `O=C(CSc1nc(-c2ccccc2)[nH]c1-c1ccc(F)cc1)NC1CCCC1`, the survival is inactive: 67%.

Consider `CCC(=O)N1CCc2cc(S(=O)(=O)NC(Cc3ccccc3)C(=O)Nc3ccc(Cl)cc3)ccc21` (stereo not given), for which the survival is inactive: 66%.

In the case of `CCCC(=O)Nc1c(C(=O)N2CCN(c3ccccc3)CC2)oc2ccccc12`, the survival was inactive: 85%.

Regarding `COc1ccc(CCNC(=O)c2cc3cccc4c3n2CC(C)S4)c(OC)c1OC` (stereo not given), the survival is inactive: 76%.

As to `CC(C)c1ccc(S(=O)(=O)Nc2cc3c(cc2NCc2ccccc2)n(C)c(=O)n3C)cc1`, the survival is active: 39%.

For `Cc1ccc(C(=O)NC2CCN(C(=O)NC3CCCCC3)CC2)cc1`, the survival is inactive: 71%.

As to `CCc1ccccc1NC(=O)C1=CC(c2ccc3c(c2)OCO3)=NS(=O)(=O)N1C`, the survival was inactive: 68%.

Take `CCOc1ccccc1NC(=O)Cn1c(=O)n(Cc2ccco2)c(=O)c2cccnc21`: the survival was inactive: 75%.

Take `CC(C)(C)c1ccc(C(=O)Nc2ccc3nc(SCC(=O)N4CCCC4)sc3c2)cc1`: the survival was inactive: 80%.

`CCc1ccccc1N(C)C(=O)c1cc2c(s1)-c1c(C)cccc1OC2`: the survival was inactive: 60%.

Take `Cc1ccc(Cn2c(C)c(CNCc3ccccc3F)c(C(=O)O)c2C)cc1`: the survival was inactive: 86%.

Turning to `COC(=O)c1cccc(S(=O)(=O)N2CCOCC2)c1`, the survival was inactive: 100%.

On to `CC(C)NS(=O)(=O)c1ccc(OCC(=O)N2CCN(c3cccc(Cl)c3)CC2)cc1`, for which the survival is inactive: 95%.

Consider `COc1cc(C2C(C(=O)Nc3ccccc3)=C(C)Nc3nc(SCC(=O)c4ccc(C)cc4)nn32)ccc1O` (stereo not given), for which the survival is inactive: 90%.

As for `COC(=O)c1c(NC(=O)CCCOc2cccc(C)c2)sc2c1CCC(C)C2` (stereo not given), the survival was active: 10%.

With `CCc1ccc(S(=O)(=O)c2nnn3c2nc(N2CCN(CC)CC2)c2sccc23)cc1`, the survival is inactive: 81%.

For `COc1ccccc1C(=O)Nc1ccc(-c2nc3cc(C)cc(C)c3o2)cc1`, the survival is inactive: 134%.

Consider `Cc1ccc(NC(=O)CSc2nc3ccc(NC(=O)c4cccc(Cl)c4)cc3s2)c(C)c1`, for which the survival was inactive: 82%.

Take `CCOC(=O)c1ccc(N2C(=O)c3n[nH]c(-c4ccco4)c3C2c2cccc(F)c2)cc1` (stereo not given): the survival is active: 12%.

Consider `Fc1ccc(-c2nnc(CN3CCN(c4ccccn4)CC3)o2)cc1`, for which the survival is inactive: 83%.

For the compound `O=C(NCc1ccco1)c1nc2c(nnn2Cc2cccc(Cl)c2)c(=O)[nH]1`, the survival was inactive: 101%.

For the compound `CCOC(=O)c1ccc(NC(=O)NC2CC3CCC(C2)N3C(=S)NCc2ccco2)cc1` (stereo not given), the survival is inactive: 102%.

`CCCNS(=O)(=O)c1ccc(CCC(=O)NCC2CCCO2)cc1` (stereo not given): the survival is inactive: 89%.

For `O=C1c2ccccc2C(=O)N1c1ncn[nH]1`, the survival is inactive: 94%.

Regarding `CC1Cc2ccccc2N1C(=O)CSc1nnnn1Cc1ccccc1` (stereo not given), the survival is inactive: 91%.

In the case of `O=C(NCc1cccc(Cl)c1)c1ccc2c(c1)nc1n2CCOC1`, the survival was inactive: 84%.

`CC(=O)c1ccc(NC(=O)c2cn(C)c(=O)c3ccccc23)cc1`: the survival is inactive: 72%.

Turning to `CCn1c(SC)nnc1C1CCCN(Cc2ccccc2)C1` (stereo not given), the survival is inactive: 100%.

As to `CN1C(=O)c2ccccc2Sc2ccc(NC(=O)NCc3ccccc3Br)cc21`, the survival was inactive: 51%.

In the case of `O=C(C1CCCN(S(=O)(=O)c2cccs2)C1)N1CCN(c2ccccc2F)CC1` (stereo not given), the survival was inactive: 85%.

Consider `O=C(Nc1ccc(F)cc1)N1CCCC(c2nc3c(nnn3Cc3ccccc3Cl)c(=O)[nH]2)C1` (stereo not given), for which the survival was inactive: 88%.

On to `Cc1nc2sc(C)c(C)n2c(=O)c1S(=O)(=O)NCCc1ccc(Cl)cc1`, for which the survival is inactive: 118%.

For `COc1cccc(CN2C(=O)C3(SCC(=O)N3c3ccc(F)cc3)c3ccccc32)c1` (stereo not given), the survival was inactive: 74%.

On to `COc1ccc(-c2nc3c(c(SCC(=O)Nc4cc(C)cc(C)c4)n2)Cc2c(CO)cnc(C)c2O3)cc1`, for which the survival was inactive: 80%.

Take `CSc1ccc(CCNC(=O)c2ccc3c(c2)nc2n3CCC(C)C2)cc1` (stereo not given): the survival was inactive: 83%.

As for `CCOCCc1nn2c(=O)cc(COC(=O)c3ccccc3NC(=O)c3cccs3)nc2s1`, the survival was inactive: 58%.

For `CCc1ccccc1NC(=O)N1CC(CC)Oc2ccc(Cl)cc21` (stereo not given), the survival was inactive: 44%.

Turning to `COc1ccc(N2CCN(C(=O)c3c(C)nn(-c4ccc(F)cc4)c3-n3cccc3)CC2)cc1`, the survival was inactive: 69%.

For the compound `Cc1cccc(N2CCN(C(=O)CCNS(=O)(=O)c3ccc4c(c3)CCN4C(=O)C3CC3)CC2C)c1` (stereo not given), the survival is inactive: 75%.

Values taken from PubChem BioAssay AID463173 (ICCB-Longwood Screening Facility, Harvard Medical School, 2010).
